Where no end group is shown, it is not given here.
Conditions: 1 or 2 weeks after the third injection

In the case of MAVLGDTAWDFGSVGGALNSLGKGIHQIFGAAF [Z2], the “Z2-specific antibodies in sera (ELISA)” value is reported as “below detection”.
